The campaign covered roughly 150,000 compounds. About 540 (0.36%) showed an effect of 50% or more. This is one part of the list.

This experiment relates to Plasmodium falciparum. The experiment can be described thus: Primary screen in NF54 nanoGlo assay, in single point, at 2uM, 72h; a lower Z score goes with more inhibition. The format is functional, Erythrocyte. The note with it: timepoint 72 hour.
`O=C(c1ccc(-c2ccsc2)nc1)N1CCC2(CC1)OCCO2`: the % Inhibition (in general, the drop in the measured response relative to a control, in per cent) is listed as -10% and the Z score is given as 1.35.

For the compound `CN(Cc1nc2ccccc2c(=O)n1-c1ccc(F)cc1)c1ccn(C)n1`, the “% Inhibition” value was 0% and the Z score was found to be 0.08.

In the case of `COc1cccc(C(=O)[C@H]2CCCN(C3CCC3)C2)c1`, the “% Inhibition” value was -1% and the Z score was found to be 0.12.

Turning to `O=C(c1ccc2c(c1)OCO2)N1C[C@H](c2ccccc2)[C@@H]2[C@H]1C1CCN2CC1`, the “% Inhibition” value was -2% and the Z score was found to be 0.3.

`CCCN1CC[C@@H](CO)N(C)c2nc(C)ccc2C1`: the “% Inhibition” value was found to be 0% and the Z score is given as -0.08.

On to `CN(C)CCC(=O)c1ccc(Br)cc1`, for which the “% Inhibition” value is recorded as 4% and the Z score is -0.55.

Regarding `Cc1cnn(CC(C)NC(C)c2nc(C3CC3)no2)c1` (configuration not stated), the “% Inhibition” value stood at 1% and the Z score is on record as -0.2.

With `O=C(NCc1ccco1)[C@H]1CCCN(S(=O)(=O)c2ccc3[nH]c(=O)oc3c2)C1`, the “% Inhibition” value is reported as -23% and the Z score turned out to be 2.31.

For `c1ccc(-c2ccno2)c(OC[C@@H]2CCCN3CCCC[C@H]23)c1`, the “% Inhibition” value amounted to 0% and the Z score is -0.02.

As to `COc1cccc([C@H]2CN(C(=O)c3cncs3)[C@@H]3C4CCN(CC4)[C@H]23)c1`, the “% Inhibition” value was determined as 0% and the Z score was 0.02.

Regarding `CCn1ccnc(N2CCC[C@H]2c2cccnc2)c1=O`, the “% Inhibition” value worked out at 0% and the Z score came out at 0.08.

For `COc1cccc(CC(=O)N2C[C@@H]3CC[C@H]2CN(Cc2ccccn2)C3)c1`, the “% Inhibition” value is -22% and the Z score stood at 2.89.

As to `c1nc(NC2CC2)cc(N2CCN3CCCC[C@H]3C2)n1`, the “% Inhibition” value is listed as -1% and the Z score is recorded as 0.12.

As for `O=S(=O)(F)CCN(CCS(=O)(=O)F)Cc1cn(C2CCC2)nn1`, the “% Inhibition” value came to 1% and the Z score is listed as -0.14.

As for `CN(C)C(=O)N1C[C@@H](c2cccc(O)c2)[C@@H]2[C@H]1C1CCN2CC1`, the “% Inhibition” value is -5% and the Z score was determined as 0.73.

For the compound `Cc1n[nH]c(C)c1CN1C2CCCC1CC2`, the “% Inhibition” value is 12% and the Z score is on record as -2.13.

`O=C(c1cnn2cccnc12)N1C[C@H](c2ccccc2)[C@@H]2[C@H]1C1CCN2CC1`: the “% Inhibition” value is recorded as -19% and the Z score is given as 2.34.

On to `Cc1ccc2c(n1)N(C)[C@H](CO)CCN(CC1CC1)C2`, for which the “% Inhibition” value is reported as -2% and the Z score turned out to be 0.33.

With `COCCc1n[nH]c(C2(N3CCCCC3)CCCCC2)n1`, the “% Inhibition” value was -4% and the Z score was 0.68.

Turning to `Cn1cc(CCNS(=O)(=O)c2cc3oc(=O)[nH]c3cc2Cl)cn1`, the “% Inhibition” value is given as -16% and the Z score stood at 2.43.

For the compound `O=C(c1ccc2cccc(Cl)c2n1)N1C[C@H]2CCCN[C@H]2C1`, the “% Inhibition” value is given as 8% and the Z score was -1.06.

With `Cn1ccc(C(=O)N2C[C@@H](c3cc(F)cc(F)c3)[C@@H]3[C@H]2C2CCN3CC2)n1`, the “% Inhibition” value is reported as -3% and the Z score was found to be 0.5.

On to `O=C(O)[C@@]12COc3ccccc3[C@@H]1CN(CCCc1cccnc1)C2`, for which the “% Inhibition” value was 2% and the Z score is given as -0.31.

`c1ccc([C@H]2CN(c3nnnn3-c3ccccc3)[C@@H]3C4CCN(CC4)[C@H]23)cc1`: the “% Inhibition” value is -8% and the Z score was 1.18.

For the compound `Cc1cnc(NC(=O)CN2CCCC2=O)s1`, the “% Inhibition” value is on record as -8% and the Z score amounted to 0.96.

For `CCc1cc(N2C[C@H](c3ccccc3OC)[C@@H]3[C@H]2C2CCN3CC2)ncn1`, the “% Inhibition” value was -11% and the Z score was found to be 1.23.

In the case of `C#CCN(C)C[C@H](O)c1ccccc1F`, the “% Inhibition” value is -7% and the Z score worked out at 1.16.

As to `O[C@@H](CNC1CCCCCC1)c1ccccc1F`, the “% Inhibition” value is recorded as 10% and the Z score is -1.32.

With `Cc1ocnc1C(=O)N1C2CCC1C(C(=O)N1CCc3ccccc31)C2` (configuration not stated), the “% Inhibition” value was -9% and the Z score came out at 1.11.

Regarding `CCn1ccc(C(=O)N2C[C@@H](c3ccc4c(c3)OCO4)[C@@H]3[C@H]2C2CCN3CC2)n1`, the “% Inhibition” value is on record as -2% and the Z score is 0.45.

In the case of `Cc1ccoc1C(=O)N1C[C@@H](c2cccc(F)c2F)[C@@H]2[C@H]1C1CCN2CC1`, the “% Inhibition” value is recorded as -11% and the Z score is listed as 2.16.

On to `O=C(c1ccccc1)c1ccc2n1CC[C@H]2C(=O)N1CCC2(CC1)OCCO2`, for which the “% Inhibition” value is 25% and the Z score was -2.82.

In the case of `CN(c1nc(Cn2c(-c3ccccc3)noc2=O)cs1)C1CC1`, the “% Inhibition” value is given as -9% and the Z score is 1.19.

For `C#CCNC(=O)[C@@H](NC(=O)c1ccn(C(C)C)n1)[C@@H](C)O`, the “% Inhibition” value worked out at 3% and the Z score is on record as -0.34.

Consider `O=C(c1ccc(F)cc1)N1CCC2(CC1)N(c1ccccc1)C(=O)CS2(=O)=O`, for which the “% Inhibition” value is -14% and the Z score is listed as 2.17.

As for `Cc1cc(C)n(-c2ccc(CCC(=O)N3CCC4(CC3)OCCO4)cc2)n1`, the “% Inhibition” value is reported as 1% and the Z score is -0.11.

As for `CNC(=O)C[C@H]1CS(=O)(=O)CCN1C(=O)C1C(C)(C)C1(C)C`, the “% Inhibition” value is reported as -2% and the Z score stood at 0.4.

As to `Nc1ncccc1OC[C@@H]1CCCN2CCCC[C@H]12`, the “% Inhibition” value is given as -10% and the Z score was found to be 1.3.

`CN1CCN(Cc2cscn2)C2(CCCCC2)C1`: the “% Inhibition” value was found to be 2% and the Z score is recorded as -0.18.

Turning to `COc1cc(CCNC2CCOC(C(F)(F)F)C2)ccc1C` (configuration not stated), the “% Inhibition” value is given as -1% and the Z score was 0.16.

As for `Cc1oncc1C(=O)N1C[C@H](c2cc(F)cc(F)c2)[C@@H]2[C@H]1C1CCN2CC1`, the “% Inhibition” value is -4% and the Z score is 0.74.

These data come from ChEMBL document CHEMBL4888484, “Replenishing the malaria drug discovery pipeline: Screening and hit evaluation of the MMV Hit Generation Library 1 (HGL1) against asexual blood stage Plasmodium falciparum ,using a nano luciferase reporter read-out” (2022).
